Measured values as given in the RNAGym collection of RNA variant scans (doi:10.7554/elife.90254).
Read counts are not given, so values of variants with three or more changes are uncertain.

B1: OR4K15 (parent)
chain: GUUAACGGUCAUAGGCCAUGGAAACUAGGAGCACCAUUUCGCUGCCAGUGAAGAAAUGAACAAAGAAAAUCUGGGCCAGGCAGGCAUCAAAAGAAAUAGUCUUGCGCUCAACCAGAAAGUCUGUAAUCAUUUUAAGGGUA

Variants of: B1
Assay: self-cleavage, relative activity (ratio to wild type); higher = more cleavage; in vitro, sequencing; the parent is a self-cleaving ribozyme

Variant	self-cleavage
A92G A94G A96G	0.81
U87C A116U A125G	0.03
A89G U131C U139C	1.47
A96U A117G U131C A140G	0.25
A111G A116G A117G	0
U100C U103C A126G	2.17
A110G A117G A126G	0.13
A114U A129G U131C	0
A82U A94U U122C	0.16
A111C A118G U122C	0.01
A92C A111U A126U	0.05
A91G A95G U97A	0.75
U87A C112U U130C U133C	0
U87A A126G G136A	1.91
A98U A110C A126G U131C	0.16
A89G U102C A110G	0.17
U102A U108A A129U	0
U103C C113U A135U	0.05
A89U U97A U108C	0.01
A98U A114G A118G U132C	0.4
A98G U122C A140G	0.45

Variant	self-cleavage
A89U U102C A129U	1.88
A96G A111G A140G	0.03
A82G A91G U130C	0.08
A94G G119A U127C	1.49
A92G A116G U132C	0.31
A114G U132C G137A	0.88
A86G U100A A134G	0.19
A86G U100C U102A	1.56
A95G U120C U131C	0.45
G84U A92U U100C	0.27
A94G U100G A126G	0.92
A90G A94G A111U A126U	0.09
A98G U102C A117G	1.79
A96G C105U U120C	0.04
A96G A114U U131C A135G	0.08
A95G U122C U132C	2.56
U100C A116G A134G A135G	0.51
G84A A96G G119U	2.33
U87C A91G G99A	0.04
U100C U130C U131C	2.28
A90G A91G U124C	0.34

Variant	self-cleavage
A91U U120C A134G	0.74
U87A U120C A125G	0.19
A91U U102C G106C	0.01
U108C A111G A114G	0
U87C A91G U102C	2.08
A90G A92U A118U A126G	0.26
A89G A92G A94U A110G A114G U120C U132C	0.01
A82G U97A U108C A118G	0.02
A96G U100C A116G A129G	0.5
U97C A98U A135U	0.69
A91U A92G U103C G119A	0.39
U108C U120C U122C	0
U87C A114G A116G	0.19
A86G A110G A114G C121U	0.07
A96U U103C U122C	0.81
A86U A91G U131C	2.11
A89G A95U U127A	2.6
A89U A117G U127C	1.19
A82U A96G U130C	0.11
A82G A118G A126G	0.3
A82G A91G U102A	0.37

Variant	self-cleavage
A91G U122C U124A	0.18
A89U A98U U102C	2.33
U97C U103C U108C	0
U108C A117G U139C	0.01
A89U A94G U100C	0.64
U87C A111G A118G U131C	0
A91G A114U A116G	0.01
A90G U97C A111G U131C	0
C88U U102C U108C	0.01
A82G U100C C107A U132C	0.01
U108C U127C U132C	0
A95G A129G U131C A134G	0.89
A92G A95G A98U	2.71
A89C U102G U131C	0.2
U102A U122C A135U	0.74
U97G A114G A116C	0.01
U87C U103C A116G A118G	0.23
A95G A111C U122A A129G	0.01
U87C A94G A96G	1.41
C85U U87A A95G	1.25
A114G U122C U130C	0.03
